# Some of the results follow. Viral Rep nickase domains cut single-stranded DNA in vitro (1 h at 37 °C, 3 µM enzyme); the outer parts of the 90-letter strands are left off. A value is the log2 ratio of uncut reads to the pool without enzyme; strong cutting gives strongly negative numbers. There is no active / inactive call. Because reads are shares of a total, they shift together, so uncut sequences can rise above 0 when many others are cut.
# Key:
# Assay in all cases: uncleaved DNA left, log2 of reads against the no-enzyme library (log2 ratio); higher = less cleavage (more negative = more Rep cleavage of the k-mer); sequences stand for … in CTCGTCCG…ACCGGAGA
# [1] = system: T1, Rep nickase domain of Muscovy duck circovirus
# T1 sequence (Rep 1-111, printed without the tag): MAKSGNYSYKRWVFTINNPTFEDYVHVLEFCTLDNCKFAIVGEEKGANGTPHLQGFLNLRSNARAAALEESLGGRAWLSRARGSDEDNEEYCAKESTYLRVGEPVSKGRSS
# Protocol: (§1)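 A pool of 90-nt single-stranded DNAs with seven random bases just before the constant AC of the nick site (name = the seven bases) was cut by 3 µM recombinant His6-SUMO-tagged Rep nickase domain (300 nM DNA, 50 mM HEPES pH 8.0, 50 mM NaCl, 1 mM MnCl2, 1 h, 37 °C, three replicates). Uncut DNA was amplified and sequenced.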
# [2] = system: T2, Rep nickase domain of banana bunchy top virus
# T2 sequence (Rep 1-94, printed without the tag): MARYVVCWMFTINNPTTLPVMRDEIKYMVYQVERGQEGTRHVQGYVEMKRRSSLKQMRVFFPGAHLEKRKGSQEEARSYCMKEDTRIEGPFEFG
# Protocol: as §1
# [3] = system: T3, Rep nickase domain of cabbage leaf curl virus
# T3 sequence (Rep 1-116, printed without the tag): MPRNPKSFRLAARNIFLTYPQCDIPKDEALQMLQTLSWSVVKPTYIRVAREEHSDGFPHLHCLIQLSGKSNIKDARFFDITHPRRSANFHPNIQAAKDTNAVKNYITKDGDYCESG
# Protocol: as §1
# [4] = system: T4, Rep nickase domain of chickpea chlorotic dwarf virus
# T4 sequence (Rep 1-124, printed without the tag): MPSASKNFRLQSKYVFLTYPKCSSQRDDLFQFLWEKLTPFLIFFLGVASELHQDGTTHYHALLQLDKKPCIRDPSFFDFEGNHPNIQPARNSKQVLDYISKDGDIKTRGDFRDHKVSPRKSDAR
# Protocol: as §1
# [5] = system: T5, Rep nickase domain of faba bean necrotic yellows virus
# T5 sequence (Rep 1-98, printed without the tag): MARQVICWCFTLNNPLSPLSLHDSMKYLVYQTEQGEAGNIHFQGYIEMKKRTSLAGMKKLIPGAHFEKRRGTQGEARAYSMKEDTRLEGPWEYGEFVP
# Protocol: as §1
# [6] = system: T6, Rep nickase domain of maize striate mosaic virus
# T6 sequence (Rep 1-117, printed without the tag): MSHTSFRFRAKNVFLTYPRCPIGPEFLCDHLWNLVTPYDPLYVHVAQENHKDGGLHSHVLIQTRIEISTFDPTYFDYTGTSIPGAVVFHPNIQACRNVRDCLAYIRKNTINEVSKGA
# Protocol: as §1
# [7] = system: T7, Rep nickase domain of porcine circovirus 2
# T7 sequence (Rep 2-116, printed without the tag): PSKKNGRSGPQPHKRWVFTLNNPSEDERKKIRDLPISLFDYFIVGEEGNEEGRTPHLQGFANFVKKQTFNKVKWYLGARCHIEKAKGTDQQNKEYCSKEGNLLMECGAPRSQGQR
# Protocol: as §1
# [8] = system: T8, Rep nickase domain of tomato golden mosaic virus
# T8 sequence (Rep 1-124, printed without the tag): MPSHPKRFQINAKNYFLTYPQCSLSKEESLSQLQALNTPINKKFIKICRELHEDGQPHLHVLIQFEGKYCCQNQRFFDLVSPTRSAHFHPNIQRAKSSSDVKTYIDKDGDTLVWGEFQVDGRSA
# Protocol: as §1
# [9] = system: T9, Rep nickase domain of tomato yellow leaf curl virus
# T9 sequence (Rep 1-136, printed without the tag): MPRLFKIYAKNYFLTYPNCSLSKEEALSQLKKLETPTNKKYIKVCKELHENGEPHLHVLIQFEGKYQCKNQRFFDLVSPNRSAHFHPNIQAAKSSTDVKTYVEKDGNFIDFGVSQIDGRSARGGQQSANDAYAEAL
# Protocol: as §1
# [10] = system: T10, Rep nickase domain of wheat dwarf virus
# T10 sequence (Rep 1-137, printed without the tag): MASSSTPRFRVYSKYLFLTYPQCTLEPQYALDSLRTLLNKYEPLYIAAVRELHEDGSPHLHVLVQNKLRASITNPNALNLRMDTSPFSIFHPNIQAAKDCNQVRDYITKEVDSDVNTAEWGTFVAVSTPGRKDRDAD
# Protocol: as §1
Sequence,uncleaved DNA left (log2) [1],uncleaved DNA left (log2) [2],uncleaved DNA left (log2) [3],uncleaved DNA left (log2) [4],uncleaved DNA left (log2) [5],uncleaved DNA left (log2) [6],uncleaved DNA left (log2) [7],uncleaved DNA left (log2) [8],uncleaved DNA left (log2) [9],uncleaved DNA left (log2) [10]
AAGTACC,-0.0944,-0.0656,0.00192,-0.267,-0.186,0.0633,-2.79,-0.0357,-0.137,-0.0388
TCAGGGG,0.0909,-0.0284,0.226,0.643,0.0304,0.18,0.228,0.146,0.0227,0.0913
CGATTAA,-0.0215,-0.0428,-0.141,-0.32,-0.0736,-0.446,-0.0337,-0.0832,-0.174,-0.0476
ACAGCTA,-0.168,-0.0612,-0.355,-1.37,-0.00109,-0.836,-0.0565,0.0971,-0.0254,-0.00812
CTGCCAC,-0.121,-0.0639,-0.106,-0.136,-0.00794,-0.66,-0.229,-0.196,-0.126,0.0121
CGAAGAA,-0.0316,-0.0347,0.0615,0.00871,-0.00457,-0.468,-0.112,-0.0473,-0.113,-0.0218
ATGCGCG,-0.0643,-0.0918,-0.712,0.0967,0.115,-0.881,0.111,0.102,-0.0429,-0.228
ATTGTAT,0.0897,-0.0295,0.026,-0.0899,0.084,-0.154,-0.448,0.0271,0.114,0.0995
GAGCATT,0.12,0.119,0.776,1.46,-0.0604,2.06,-2.53,-0.0485,0.112,0.203
TCCAGTA,0.0355,0.00246,0.0225,-0.69,-0.0557,-0.444,0.0118,0.18,-0.0133,-0.0125
AGTCCCC,-0.122,-0.0391,0.596,1.09,-0.037,1.27,-0.788,0.00928,0.00704,0.0581
ACGAACG,-0.135,-0.0123,-0.768,-0.188,-0.0323,-0.917,0.0815,-0.0904,0.00439,-0.0356
AGTAGAC,0.00374,-0.0193,0.142,0.772,0.0385,0.943,0.0626,0.0526,-0.103,0.0675
AGCTAAC,0.0495,0.092,-0.62,-0.55,0.0502,-0.214,-0.0434,0.0168,0.0121,0.0176
GAAATCA,0.0311,0.123,0.274,-0.346,0.0272,0.87,-0.0639,0.045,0.13,0.0807
AGCGGCT,-0.0199,0.0447,0.126,0.553,-0.0249,1.66,0.129,0.0957,0.0629,0.19
TCCAGAA,0.0576,-0.0598,0.191,0.0123,-0.0977,-0.435,-0.0161,0.0701,-0.199,-0.00742
GGGACGA,0.0665,0.215,0.938,2.16,0.0172,2.34,0.266,0.134,-0.104,0.28
TGTGATC,-0.0232,-0.109,0.294,0.533,-0.125,0.766,-0.0666,-0.106,-0.0722,-0.0823
CCTGGCG,-0.124,-0.0904,-0.791,0.48,-0.039,-0.476,0.1,0.0199,-0.0491,-0.113

Sequence,uncleaved DNA left (log2) [1],uncleaved DNA left (log2) [2],uncleaved DNA left (log2) [3],uncleaved DNA left (log2) [4],uncleaved DNA left (log2) [5],uncleaved DNA left (log2) [6],uncleaved DNA left (log2) [7],uncleaved DNA left (log2) [8],uncleaved DNA left (log2) [9],uncleaved DNA left (log2) [10]
CATCTTG,-0.189,-0.212,-0.814,-1.76,-0.221,-1.25,0.072,-0.212,-0.0966,-0.175
CTGGCCT,-0.282,-0.229,-0.247,-0.167,-0.24,0.528,-0.16,-0.184,-0.201,-0.339
GAAACAC,0.044,0.024,0.304,0.693,0.0092,0.877,0.172,0.0493,0.0905,0.207
CACCAGT,-0.181,-0.0785,-0.541,-1.93,0.0376,-1.05,-0.581,-0.0772,-0.0775,-0.119
TGCTACG,-0.121,-0.17,-0.695,-1.08,-0.0832,-1.34,-0.301,-0.0888,-0.19,-0.248
AGTTCTT,-2.62,-1.64,-0.0911,-1.55,-0.374,0.18,-3.49,0.0132,0.00063,-0.0429
TAAATCC,0.0721,-0.0241,-2.27,-2.91,0.0711,-0.808,0.0445,-0.173,0.0435,-0.929
ACGATCG,-0.15,-0.0896,-0.788,-0.235,-0.0796,-1.02,0.0437,-0.0319,-0.0457,-0.066
TGAAGGT,0.00828,-0.0635,0.288,0.975,-0.0275,1.53,0.0657,0.0198,-0.12,0.0702
ATGACCA,-0.0778,-0.149,-0.00058,-0.012,-0.0806,0.364,-0.0337,-0.15,-0.0907,0.0964
ATCCGCT,-0.129,-0.117,-0.428,-1.19,0.0172,-0.983,-0.175,-0.0515,-0.101,-0.121
CCACCGG,-0.0882,-0.0827,0.252,0.912,-0.187,1.27,-0.0594,-0.0294,-0.146,-0.161
GGTCACA,-0.0121,0.104,0.614,1.27,0.000409,1.96,0.179,-0.0121,0.19,0.147
CACAATA,-0.109,-0.194,-0.339,-2.97,-0.0205,-0.738,-0.241,0.0502,-0.263,-0.0772
GTGGTTT,0.00567,-0.115,0.28,0.735,-0.0641,1.7,-0.0443,-0.073,-0.0912,-0.139
CATAGTT,-0.0583,-1.79,-0.491,-2.8,0.0854,-0.94,-2.13,-0.0477,0.0092,-0.085
ACACCGG,-0.0506,-0.0133,-0.21,-0.0252,0.0183,-0.49,0.0867,0.0217,-0.0927,-0.176
ATTTAGT,-3.26,-2.39,-0.432,-1.24,0.0246,-1.13,-3.66,0.0172,-0.0236,-0.141
TTATATG,0.0239,0.0115,-0.422,-0.55,0.0609,-1.13,0.224,-0.0302,0.0582,-0.0102
ATTGCAA,0.075,0.102,-0.533,-0.6,0.087,-0.931,0.169,0.0696,0.168,-0.057

Sequence,uncleaved DNA left (log2) [1],uncleaved DNA left (log2) [2],uncleaved DNA left (log2) [3],uncleaved DNA left (log2) [4],uncleaved DNA left (log2) [5],uncleaved DNA left (log2) [6],uncleaved DNA left (log2) [7],uncleaved DNA left (log2) [8],uncleaved DNA left (log2) [9],uncleaved DNA left (log2) [10]
CCGGCAC,-0.0124,-0.0901,0.189,0.0751,0.112,0.167,0.0376,-0.0321,-0.00501,-0.0933
GGATGGC,0.0688,0.107,0.674,1.33,0.122,1.42,0.254,0.128,0.04,0.108
TTGCTGC,0.0338,-0.0343,-0.31,-0.403,0.0394,-0.884,0.065,-0.08,0.0101,-0.0207
GTTCCCG,-1.05,-0.000474,-0.283,-0.56,-0.0574,-0.62,-1.91,0.0483,-0.0408,0.00851
GGCGCGT,0.0527,-0.0502,0.275,0.648,0.00278,0.789,0.209,-7.57e-05,-0.0779,0.0269
CATGATA,-0.0554,-0.124,-0.226,-2.12,-0.12,-0.51,-0.101,0.024,-0.0583,-0.122
GAAGGAT,0.11,0.0798,0.272,1.62,0.0784,1.89,0.184,0.0755,-0.161,0.0196
CCGGCAG,0.0119,-0.0131,-0.352,-0.376,0.00473,-0.695,0.0886,0.18,-0.0409,-0.0921
CAAATCT,-0.0479,0.0204,-3.22,-3.12,0.0703,-1.33,-0.834,-0.86,-0.014,-1.37
ATGCACT,-0.124,-0.142,-0.293,-1.35,-0.202,-0.37,-0.276,-0.204,-0.104,-0.254
CGTTGTC,0.135,-0.0224,-0.33,-0.316,-0.118,-0.837,0.0321,-0.127,0.0241,-0.0699
CATCATT,-0.27,-0.514,-0.14,-2.47,-0.042,-0.471,-2.5,0.0627,0.168,-0.136
TGCCTAG,-0.00163,-0.0583,-0.781,-0.643,0.0499,-0.999,0.0476,0.112,-0.0488,-0.166
CGCTTTG,-0.00455,-0.0617,-0.369,-0.298,-0.0449,-0.53,-0.0363,-0.0989,-0.0846,-0.049
TAAGACC,0.00364,0.11,-0.174,-1.37,0.0463,-0.431,0.112,0.0132,0.0196,-0.022
TATATAT,0.0282,-0.431,-0.19,-1.59,0.0505,0.345,-1,-0.0101,0.158,0.0595
AGGCGTG,0.0896,-0.074,-0.282,-0.0856,-0.109,-0.156,0.119,-0.0304,-0.000989,-0.137
ACTCCGT,-0.0225,-0.114,-0.356,-0.545,-0.0238,-1.08,0.0515,0.0451,-0.109,-0.0971
TTCTTGA,0.0427,0.00776,0.244,0.392,-0.12,0.679,0.0245,-0.0274,-0.0261,-0.0374
GCTAAGA,0.0254,0.0129,0.0646,0.337,0.0538,-0.518,0.148,0.0447,0.0969,0.0839

# — the supplement of paper PMC7826260
